# Assay results as given in the supplement of paper PMC8728848.
# The other results are listed elsewhere or left out.
# B1: Arath Fbox (Arabidopsis thaliana), NP_178341.1 (protein)
# chain: EFTWGRKRRVKSESSPFDSFPEDCISYIISFTNPRDACVAATVSKTFESTVKSDIIWEKFLPADYESLIPPSRVFSSKKELYFSLCNDPVLFDDDKKSVWLEKASGKRCLMLSAMNLSIIWGDNPQYWQWIPIPESRFEKVAKLRDVCWFEIRGRTNTRVLSPRTRYSAYIVFKGVDKCYGFQNVAIEAAVGVVGQEPSRRLICFSEAIRRGRRNVVKPKQREDGWMEIELGEFFNDGGIMDNDEIEMSALETKQLNRKCGLIIQGIEIRPAKILAAAAASFLEQKLISEEDLNSAVDHHHHHH
# Experiments:
# Assay in all cases: glycan array binding signal (z-score within array); higher = stronger binding
# Conditions in all cases: glycan notation: IUPAC condensed, linker removed
# Neu5Ac(a2-3)Gal = target: Neu5Ac(a2-3)Gal
# Outline: (§1)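 Glycan array binding is given as a within-array Z-score, which can be read as non-binding when negative. The arrays, 3228 of them, came from the Consortium for Functional Glycomics database and were retained only where the protein sequence was available. Z-scores were averaged across arrays of the same protein sequence at different concentrations or buffers and across linkers.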
# [1] = target: Neu5Ac(a2-3)Gal(b1-3)GalNAc
# Outline: as §1
# [2] = target: Neu5Ac(a2-3)Gal(b1-3)GalNAc(b1-3)Gal(a1-4)Gal(b1-4)Glc
# Outline: as §1
# [3] = target: Neu5Ac(a2-3)Gal(b1-3)GalNAc(b1-4)[Neu5Ac(a2-3)]Gal(b1-4)Glc
# Outline: as §1
# [4] = target: Neu5Ac(a2-3)Gal(b1-3)GalNAc(b1-4)[Neu5Ac(a2-8)Neu5Ac(a2-3)]Gal(b1-4)Glc
# Outline: as §1
# [5] = target: Neu5Ac(a2-3)Gal(b1-3)GalNAc6S
# Outline: as §1
# [6] = target: Neu5Ac(a2-3)Gal(b1-3)GlcNAc
# Outline: as §1
# [7] = target: Neu5Ac(a2-3)Gal(b1-3)GlcNAc(b1-2)Man
# Outline: as §1
# [8] = target: Neu5Ac(a2-3)Gal(b1-3)GlcNAc(b1-2)Man(a1-3)[GlcNAc(b1-4)][Neu5Ac(a2-3)Gal(b1-3)GlcNAc(b1-2)Man(a1-6)]Man(b1-4)GlcNAc(b1-4)GlcNAc
# Outline: as §1
# [9] = target: Neu5Ac(a2-3)Gal(b1-3)GlcNAc(b1-2)Man(a1-3)[Neu5Ac(a2-3)Gal(b1-3)GlcNAc(b1-2)Man(a1-6)]Man(b1-4)GlcNAc(b1-4)GlcNAc
# Outline: as §1
# [10] = target: Neu5Ac(a2-3)Gal(b1-3)GlcNAc(b1-3)Gal(b1-3)GlcNAc
# Outline: as §1
# [11] = target: Neu5Ac(a2-3)Gal(b1-3)GlcNAc(b1-3)Gal(b1-4)GlcNAc
# Outline: as §1
# [12] = target: Neu5Ac(a2-3)Gal(b1-3)GlcNAc(b1-3)GalNAc
# Outline: as §1
# [13] = target: Neu5Ac(a2-3)Gal(b1-3)GlcNAc(b1-4)Gal(b1-4)Glc
# Outline: as §1
# [14] = target: Neu5Ac(a2-3)Gal(b1-3)GlcNAc(b1-6)GalNAc
# Outline: as §1
# [15] = target: Neu5Ac(a2-3)Gal(b1-3)GlcNAc6S
# Outline: as §1
# [16] = target: Neu5Ac(a2-3)Gal(b1-3)[Fuc(a1-4)]GlcNAc
# Outline: as §1
# [17] = target: Neu5Ac(a2-3)Gal(b1-3)[Fuc(a1-4)]GlcNAc(b1-3)Gal(b1-3)[Fuc(a1-4)]GlcNAc
# Outline: as §1
# [18] = target: Neu5Ac(a2-3)Gal(b1-3)[Fuc(a1-4)]GlcNAc(b1-3)Gal(b1-4)[Fuc(a1-3)]GlcNAc
# Outline: as §1
# [19] = target: Neu5Ac(a2-3)Gal(b1-3)[GlcNAc(b1-6)]GalNAc
# Outline: as §1
# [20] = target: Neu5Ac(a2-3)Gal(b1-3)[Neu5Ac(a2-6)]GalNAc
# Outline: as §1
# [21] = target: Neu5Ac(a2-3)Gal(b1-3)[Neu5Ac(a2-6)]GlcNAc(b1-3)[Fuc(a1-3)[Gal(b1-4)]GlcNAc(b1-6)]Gal(b1-4)Glc
# Outline: as §1
# [22] = target: Neu5Ac(a2-3)Gal(b1-3)]Neu5Ac(a2-3)Gal(b1-4)]GlcNAc
# Outline: as §1
# Neu5Ac(a2-3)Gal(b1-4)Glc = target: Neu5Ac(a2-3)Gal(b1-4)Glc
# Outline: as §1
# [23] = target: Neu5Ac(a2-3)Gal(b1-4)GlcNAc
# Outline: as §1
# [24] = target: Neu5Ac(a2-3)Gal(b1-4)GlcNAc(b1-2)Man
# Outline: as §1
# [25] = target: Neu5Ac(a2-3)Gal(b1-4)GlcNAc(b1-2)Man(a1-3)[GlcNAc(b1-4)][Neu5Ac(a2-3)Gal(b1-4)GlcNAc(b1-2)Man(a1-6)]Man(b1-4)GlcNAc(b1-4)GlcNAc
# Outline: as §1
# [26] = target: Neu5Ac(a2-3)Gal(b1-4)GlcNAc(b1-2)Man(a1-3)[Neu5Ac(a2-3)Gal(b1-4)GlcNAc(b1-2)Man(a1-6)]Man(b1-4)GlcNAc(b1-4)GlcNAc
# Outline: as §1
# [27] = target: Neu5Ac(a2-3)Gal(b1-4)GlcNAc(b1-2)Man(a1-3)[Neu5Ac(a2-3)Gal(b1-4)GlcNAc(b1-2)Man(a1-6)]Man(b1-4)GlcNAc(b1-4)[Fuc(a1-6)]GlcNAc
# Outline: as §1
# [28] = target: Neu5Ac(a2-3)Gal(b1-4)GlcNAc(b1-2)Man(a1-3)[Neu5Ac(a2-6)Gal(b1-4)GlcNAc(b1-2)Man(a1-6)]Man(b1-4)GlcNAc(b1-4)GlcNAc
# Outline: as §1
# [29] = target: Neu5Ac(a2-3)Gal(b1-4)GlcNAc(b1-2)[Neu5Ac(a2-3)Gal(b1-4)GlcNAc(b1-4)]Man(a1-3)[GlcNAc(b1-4)][Neu5Ac(a2-3)Gal(b1-4)GlcNAc(b1-2)[Neu5Ac(a2-3)Gal(b1-4)GlcNAc(b1-6)]Man(a1-6)]Man(b1-4)GlcNAc(b1-4)GlcNAc
# Outline: as §1
# [30] = target: Neu5Ac(a2-3)Gal(b1-4)GlcNAc(b1-2)[Neu5Ac(a2-3)Gal(b1-4)GlcNAc(b1-4)]Man(a1-3)[GlcNAc(b1-4)][Neu5Ac(a2-3)Gal(b1-4)GlcNAc(b1-4)Man(a1-6)]Man(b1-4)GlcNAc(b1-4)GlcNAc
# Outline: as §1
# [31] = target: Neu5Ac(a2-3)Gal(b1-4)GlcNAc(b1-2)[Neu5Ac(a2-3)Gal(b1-4)GlcNAc(b1-6)]Man(a1-6)[Neu5Ac(a2-3)Gal(b1-4)GlcNAc(b1-2)Man(a1-3)]Man(b1-4)GlcNAc(b1-4)GlcNAc
# Outline: as §1
# [32] = target: Neu5Ac(a2-3)Gal(b1-4)GlcNAc(b1-2)[Neu5Ac(a2-3)Gal(b1-4)GlcNAc(b1-6)]Man(a1-6)[Neu5Ac(a2-3)Gal(b1-4)GlcNAc(b1-2)Man(a1-3)][GlcNAc(b1-4)]Man(b1-4)GlcNAc(b1-4)GlcNAc
# Outline: as §1
# [33] = target: Neu5Ac(a2-3)Gal(b1-4)GlcNAc(b1-3)Gal
# Outline: as §1
# [34] = target: Neu5Ac(a2-3)Gal(b1-4)GlcNAc(b1-3)Gal(b1-3)GlcNAc
# Outline: as §1
# [35] = target: Neu5Ac(a2-3)Gal(b1-4)GlcNAc(b1-3)Gal(b1-4)GlcNAc
# Outline: as §1
binder,measurement,setting,value
B1,glycan array binding signal (z-score),Neu5Ac(a2-3)Gal,1.31
same,glycan array binding signal (z-score),[1],-0.605
same,glycan array binding signal (z-score),[2],-0.412
same,glycan array binding signal (z-score),[3],-0.594
same,glycan array binding signal (z-score),[4],-0.392
same,glycan array binding signal (z-score),[5],-0.626
same,glycan array binding signal (z-score),[6],-0.693
same,glycan array binding signal (z-score),[7],-0.092
same,glycan array binding signal (z-score),[8],-0.608
same,glycan array binding signal (z-score),[9],-0.599
same,glycan array binding signal (z-score),[10],-0.74
same,glycan array binding signal (z-score),[11],-0.661
same,glycan array binding signal (z-score),[12],-0.254
same,glycan array binding signal (z-score),[13],-0.518
same,glycan array binding signal (z-score),[14],-0.024
same,glycan array binding signal (z-score),[15],-0.336
same,glycan array binding signal (z-score),[16],-0.597
same,glycan array binding signal (z-score),[17],0.221
same,glycan array binding signal (z-score),[18],-0.67
same,glycan array binding signal (z-score),[19],-0.711
same,glycan array binding signal (z-score),[20],-0.499
same,glycan array binding signal (z-score),[21],0.154
same,glycan array binding signal (z-score),[22],1.07
same,glycan array binding signal (z-score),Neu5Ac(a2-3)Gal(b1-4)Glc,-0.675
same,glycan array binding signal (z-score),[23],-0.387
same,glycan array binding signal (z-score),[24],0.422
same,glycan array binding signal (z-score),[25],-0.75
same,glycan array binding signal (z-score),[26],-0.772
same,glycan array binding signal (z-score),[27],-0.708
same,glycan array binding signal (z-score),[28],-0.749
same,glycan array binding signal (z-score),[29],-0.431
same,glycan array binding signal (z-score),[30],-0.448
same,glycan array binding signal (z-score),[31],-0.525
same,glycan array binding signal (z-score),[32],-0.75
same,glycan array binding signal (z-score),[33],-0.691
same,glycan array binding signal (z-score),[34],-0.752
same,glycan array binding signal (z-score),[35],-0.64
